Data as given in the supplement of paper PMC12217912.
Some of the results follow. Sequences were assembled here from the parent chain. Values near 0.05 are background.

B1: TEV protease; numbered along this chain (parent)
chain: MGESLFKGPRDYNPISSSICHLTNESDGHTTSLYGIGFGPFIITNKHLFRRNNGTLVVQSLHGVFKVKDTTTLQQHLVDGRDMIIIRMPKDFPPFPQKLKFREPQREERICLVTTNFQTKSMSSMVSDTSCTFPSGDGIFWKHWIQTKDGQCGSPLVSTRDGFIVGIHSASNFTNTNNYFTSVPKNFMELLTNQEAQQWVSGWRLNADSVLWGGHKVFMVKPEEPFQPVKEATQL

Variants of: B1
Experiment: raw area under fraction-flipped curve 0-4 h after induction (AUC4h, not background-subtracted), DNA-recorder readout of cleavage of the substrate (dimensionless); higher = more cleavage of the substrate by the protease variant
Conditions: temperature: 34 °C; time window: 0-4 h after rhamnose induction
Description: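 In vivo DNA recorder in E. coli TOP10(DE3) ΔrhaA at 34 °C. Each TEVp single-site mutant (parent TEVp 0) is paired with a single-site variant of the 7-mer TEVs (canonical ENLYFQ|S). The substrate sits between flexible linkers in a Bxb1-sfGFP-TEVs-SsrA fusion, so cleavage stabilises Bxb1 and speeds flipping of a recombination array, read by NGS. The value is the raw area under the fraction-flipped curve over 0-4 h after rhamnose induction (AUC4h), with ≥20 reads per time point. It is not background-subtracted; inactive controls average about 0.047.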
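Further: Bxb1 expression induced with 0.2% (w/v) L-rhamnose at OD600 near 0.5, cultures sampled hourly, flipped fraction per protease–substrate barcode pair counted by paired-end Illumina sequencing.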

Variant	area with substrate ENLYFQC	area with substrate ENLYFQD	area with substrate ENLYFQH	area with substrate ENLYFQI	area with substrate ENLYFQM	area with substrate ENLYFQR	area with substrate ENLYFQS	area with substrate ENLYFQV	area with substrate ENLYFQW	area with substrate ENLYFQY	area with substrate ENLYFQF	area with substrate ENLYFQG	area with substrate ENLYFQK	area with substrate ENLYFQL	area with substrate ENLYFQN	area with substrate ENLYFQP	area with substrate ENLYFQT	area with substrate ENLYFQE	area with substrate ENLYFQQ
R51K	0.124	0.0732	0.082	0.0635	0.104	0.0555	0.107	0.054	0.0641	0.0782	–	–	–	–	–	–	–	–	–
T55F	0.107	0.0732	–	–	–	0.0591	0.0984	–	0.0643	–	0.0369	0.0918	0.0679	0.0577	0.0725	0.0537	0.0798	–	–
V58F	0.0868	0.0513	0.0604	0.0453	–	0.0505	0.091	–	0.0496	–	–	–	–	–	0.0893	0.05	–	0.0713	–
Q59M	0.123	0.0649	–	–	0.0825	0.0567	0.102	–	–	0.0611	0.112	0.115	0.0434	0.0646	–	0.052	0.0744	0.0451	0.103
S60M	0.11	0.0666	0.0776	0.0559	0.0614	0.0625	0.104	0.054	0.0778	–	–	0.0975	0.0611	0.0634	0.0893	0.068	0.0615	–	–
S60P	0.0773	0.0433	0.0532	0.0437	0.0529	0.0482	0.0511	–	0.0286	0.0669	–	0.0814	–	0.0426	0.0417	–	0.0406	–	–
L77E	0.0678	–	–	–	0.0552	0.0474	0.0677	0.047	0.0717	0.0529	–	0.0658	0.0663	–	0.063	0.0513	–	–	–
L77G	0.0499	–	0.0698	0.0651	0.0597	–	0.0701	0.0234	0.0503	–	–	0.0658	–	–	0.0559	0.0579	–	–	–
M83C	0.0976	–	0.0688	–	0.0648	–	0.0853	–	0.0752	–	–	–	0.0734	0.0617	–	0.0402	0.0665	–	–
M83K	0.058	–	0.0554	0.0546	0.0622	0.0373	0.061	–	0.0497	0.0599	–	0.06	0.0748	0.0576	0.0431	0.0493	–	–	–
I84F	0.073	0.0507	0.0478	–	0.0556	0.0567	0.0625	0.0564	0.0544	0.035	–	–	–	0.017	0.0654	–	0.0577	–	0.0552
D91Q	0.111	–	–	0.0707	–	–	0.103	–	–	–	0.0761	–	0.059	0.0429	–	–	–	–	0.0627
F92Y	0.0894	0.0401	0.0887	0.0456	0.0955	0.0616	0.106	–	0.0439	–	0.05	–	0.0504	–	0.0788	0.0462	0.0849	–	0.0621
P93A	0.12	–	–	–	–	0.0516	0.105	0.0567	–	–	0.0795	–	0.0576	0.0515	0.0792	0.0512	0.0579	–	–
L99P	0.0846	0.0657	0.0857	0.0656	0.006	0.0561	0.0981	–	0.0431	–	0.0908	0.0927	–	–	0.0729	0.0556	0.0657	–	–
K100F	0.122	–	–	0.054	0.0647	0.0636	0.102	–	–	–	0.106	0.0882	0.0596	–	–	0.0739	0.0836	–	–
I110S	0.0382	0.0552	–	–	0.07	0.0531	0.0632	0.0512	0.0562	0.0513	0.0431	0.0528	0.052	0.0536	0.0549	–	0.0567	0.0597	–
C111W	0.0963	–	–	0.0655	0.0756	0.0632	0.0887	–	0.0597	–	0.0727	0.089	0.087	–	0.0826	–	–	0.102	–
Q118V	0.112	–	–	–	–	0.0578	0.106	–	–	–	–	0.111	–	0.0679	–	–	0.0534	–	0.0684
M122A	0.12	–	–	0.0546	0.0833	–	0.11	–	0.0619	0.0902	–	0.106	0.0727	–	0.0822	–	0.0583	–	–
M122N	0.117	0.0772	–	0.0707	–	–	0.106	0.08	0.0696	0.0741	0.0826	–	0.0584	0.075	0.0817	–	0.0599	0.0499	–
S124A	0.138	–	0.0186	0.0645	0.133	0.0573	0.11	–	–	–	–	0.0771	–	–	0.0798	0.0622	0.0727	–	–
S124F	0.0948	–	–	0.0618	0.0733	0.0776	0.0986	–	0.0369	0.0522	–	0.0914	0.0686	0.0477	0.0766	0.0743	0.0632	–	–
S124I	0.0954	–	0.0584	0.0687	0.072	–	0.0973	0.0644	0.0665	–	–	–	0.0667	–	0.079	0.0592	0.0515	–	–
M125R	0.157	0.0683	0.0802	0.0585	0.0998	0.0676	0.111	0.0562	0.0763	0.0362	0.0777	0.121	0.0548	0.0511	0.0841	0.0579	0.0674	–	–
M125S	0.14	–	0.0685	0.0699	0.111	0.0741	0.102	–	0.069	–	–	–	–	0.0487	0.0642	0.058	0.0685	–	–
D128V	0.133	–	0.111	0.0791	0.108	0.0697	0.131	–	0.0782	0.0577	–	–	0.0542	0.0665	0.1	–	0.073	–	–
T129F	0.0996	–	–	–	0.0756	0.0586	0.0832	0.0039	–	–	–	0.0738	0.0603	0.0664	0.0777	0.0663	0.0821	0.0666	0.0843
T129V	0.103	0.0658	0.0814	0.0779	0.085	0.0551	0.0878	–	–	0.0951	–	0.0896	–	0.04	0.0615	0.0584	–	0.0686	–
